One assay concerns DIV7 neurons. In words: CellTiter-Glo Luminescent cell viability of DIV7 neurons. Type of assay: cell-based. The note with it: 0, 1, 2, 4, 6, 8 and 16 mM, each compared with the 0 mM group, FIG. 12. From the text: Effects of different concentrations of fructose on the viability of DIV7 neurons were studied using a CellTiter-Glo® Luminescent cell viability test kit, and an added concentration of the fructose was explored in the cell system.

In a further assay the test system is OGD-injured neurons. Briefly: Survival rate of OGD-treated neurons by MAP2 and DAPI immunofluorescence staining. The settings on record: OGD 1.5 h, 2 mM, after 24 h, FIG. 14.

Each structure is given as a SMILES string.

Regarding `O=C(CO)[C@@H](O)[C@H](O)[C@H](O)CO` [fructose], in the assay with DIV7 neurons, the “viability of DIV7 neurons” value was “improvement effect on neuron viability significantly better than that of the fructose-1,6-bisphosphate and the glycerol fructose”. The “survival rate of neurons after OGD” value in the assay with OGD-injured neurons is reported as “has a significantly better effect than the fructose-1,6-bisphosphate”.

Source of the values: patent US11911477B2, “Use of fructose in preparing drug for treating ischemic injury” (Beihang University, priority 2021, dated 2024).
